In the supplement of paper PMC8728848:
This is one part of the list.

Assays:
Experiment in all cases: glycan array binding signal (z-score within array); higher = stronger binding
Conditions in all cases: glycan notation: IUPAC condensed, linker removed
[1] = biological target: Fuc(a1-3)[Gal(b1-4)]GlcNAc(b1-3)GalNAc
Method in brief: (§1)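 The Consortium for Functional Glycomics database supplied 3228 glycan arrays, of which those lacking an available protein sequence were dropped. The binding signal, a within-array Z-score, was averaged across arrays of the same protein sequence and across linkers. Negative scores can be read as non-binding.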

[2] = biological target: Fuc(a1-3)[Gal(b1-4)]GlcNAc(b1-4)Gal(b1-4)[Fuc(a1-3)]GlcNAc
Method in brief: as §1

[3] = biological target: Fuc(a1-3)[Gal(b1-4)]GlcNAc(b1-4)Gal(b1-4)[Fuc(a1-3)]GlcNAc(b1-4)Gal(b1-4)[Fuc(a1-3)]GlcNAc
Method in brief: as §1

[4] = biological target: Fuc(a1-3)[Gal(b1-4)]GlcNAc(b1-6)GalNAc
Method in brief: as §1

[5] = biological target: Fuc(a1-3)[Gal(b1-4)]GlcNAc(b1-6)[Gal(b1-3)GlcNAc(b1-3)]Gal(b1-4)Glc
Method in brief: as §1

[6] = biological target: Fuc(a1-3)[Gal(b1-4)]GlcNAc(b1-6)[Neu5Ac(a2-3)Gal(b1-3)]GalNAc
Method in brief: as §1

[7] = biological target: Fuc(a1-3)[Gal(b1-4)]GlcNAc6S
Method in brief: as §1

[8] = biological target: Fuc(a1-3)[Gal3S(b1-4)]Glc6S
Method in brief: as §1

[9] = biological target: Fuc(a1-3)[Gal3S(b1-4)]GlcNAc
Method in brief: as §1

[10] = biological target: Fuc(a1-3)[Gal3S(b1-4)]GlcNAc6S
Method in brief: as §1

[11] = biological target: Fuc(a1-3)[GalNAc(b1-4)]GlcNAc
Method in brief: as §1

[12] = biological target: Fuc(a1-3)[GalNAc(b1-4)]GlcNAc6S
Method in brief: as §1

[13] = biological target: Fuc(a1-3)[GalNAc3S(b1-4)]GlcNAc
Method in brief: as §1

[14] = biological target: Fuc(a1-4)GlcNAc
Method in brief: as §1

[15] = biological target: Fuc(b1-3)GlcNAc
Method in brief: as §1

[16] = biological target: Gal(a1-2)Gal
Method in brief: as §1

[17] = biological target: Gal(a1-3)Gal
Method in brief: as §1

[18] = biological target: Gal(a1-3)Gal(b1-3)GlcNAc
Method in brief: as §1

[19] = biological target: Gal(a1-3)Gal(b1-3)GlcNAc(b1-2)Man(a1-3)[Gal(a1-3)Gal(b1-3)GlcNAc(b1-2)Man(a1-6)]Man(b1-4)GlcNAc(b1-4)GlcNAc
Method in brief: as §1

[20] = biological target: Gal(a1-3)Gal(b1-3)GlcNAc(b1-3)GalNAc
Method in brief: as §1

[21] = biological target: Gal(a1-3)Gal(b1-3)GlcNAc(b1-6)GalNAc
Method in brief: as §1

[22] = biological target: Gal(a1-3)Gal(b1-3)[Fuc(a1-4)]GlcNAc(b1-2)Man(a1-3)[Gal(a1-3)Gal(b1-3)[Fuc(a1-4)]GlcNAc(b1-2)Man(a1-6)]Man(b1-4)GlcNAc(b1-4)GlcNAc
Method in brief: as §1

[23] = biological target: Gal(a1-3)Gal(b1-4)Glc
Method in brief: as §1

[24] = biological target: Gal(a1-3)Gal(b1-4)GlcNAc
Method in brief: as §1

[25] = biological target: Gal(a1-3)Gal(b1-4)GlcNAc(b1-3)GalNAc
Method in brief: as §1

[26] = biological target: Gal(a1-3)Gal(b1-4)GlcNAc(b1-6)GalNAc
Method in brief: as §1

[27] = biological target: Gal(a1-3)Gal(b1-4)[Fuc(a1-3)]GlcNAc
Method in brief: as §1

[28] = biological target: Gal(a1-3)Gal(b1-4)[Fuc(a1-3)]GlcNAc(b1-2)Man(a1-3)[Gal(a1-3)Gal(b1-4)[Fuc(a1-3)]GlcNAc(b1-2)Man(a1-6)]Man(b1-4)GlcNAc(b1-4)GlcNAc
Method in brief: as §1

[29] = biological target: Gal(a1-3)GalNAc
Method in brief: as §1

[30] = biological target: Gal(a1-3)[Gal(a1-4)]Gal(b1-4)GlcNAc
Method in brief: as §1

[31] = biological target: Gal(a1-4)Gal(b1-3)GlcNAc(b1-2)Man(a1-3)[Gal(a1-4)Gal(b1-3)GlcNAc(b1-2)Man(a1-6)]Man(b1-4)GlcNAc(b1-4)GlcNAc
Method in brief: as §1

[32] = biological target: Gal(a1-4)Gal(b1-4)Glc
Method in brief: as §1

[33] = biological target: Gal(a1-4)Gal(b1-4)GlcNAc
Method in brief: as §1

[34] = biological target: Gal(a1-4)Gal(b1-4)GlcNAc(b1-2)Man(a1-3)[Gal(a1-4)Gal(b1-4)GlcNAc(b1-2)Man(a1-6)]Man(b1-4)GlcNAc(b1-4)GlcNAc
Method in brief: as §1

[35] = biological target: Gal(a1-4)Gal(b1-4)GlcNAc(b1-3)Gal(b1-4)Glc
Method in brief: as §1

[36] = biological target: Gal(a1-4)GlcNAc
Method in brief: as §1

[37] = biological target: Gal(a1-6)Glc
Method in brief: as §1

B1: Gal 8 (Homo sapiens), O00214_1 (protein)
chain: MMLSLNNLQNIIYNPVIPFVGTIPDQLDPGTLIVIRGHVPSDADRFQVDLQNGSSMKPRADVAFHFNPRFKRAGCIVCNTLINEKWGREEITYDTPFKREKSFEIVIMVLKDKFQVAVNGKHTLLYGHRIGPEKIDTLGIYGKVNIHSIGFSFSSDLQSTQASSLELTEISRENVPKSGTPQLRLPFAARLNTPMGPGRTVVVKGEVNANAKSFNVDLLAGKSKDIALHLNPRLNIKAFVRNSFLQESWGEEERNITSFPFSPGMYFEMIIYCDVREFKVAVNGVHSLEYKHRFKELSSIDTLEINGDIHLLEVRSW
glycan array binding signal (z-score) [1]: -0.171 | glycan array binding signal (z-score) [2]: -0.228 | glycan array binding signal (z-score) [3]: -0.181 | glycan array binding signal (z-score) [4]: -0.029 | glycan array binding signal (z-score) [5]: -0.242 | glycan array binding signal (z-score) [6]: -0.149 | glycan array binding signal (z-score) [7]: -0.162 | glycan array binding signal (z-score) [8]: -0.127 | glycan array binding signal (z-score) [9]: 0.108 | glycan array binding signal (z-score) [10]: -0.186 | glycan array binding signal (z-score) [11]: -0.131 | glycan array binding signal (z-score) [12]: -0.207 | glycan array binding signal (z-score) [13]: -0.232 | glycan array binding signal (z-score) [14]: -0.171 | glycan array binding signal (z-score) [15]: -0.095 | glycan array binding signal (z-score) [16]: -0.187 | glycan array binding signal (z-score) [17]: -0.252 | glycan array binding signal (z-score) [18]: 0.318 | glycan array binding signal (z-score) [19]: -0.164 | glycan array binding signal (z-score) [20]: -0.079 | glycan array binding signal (z-score) [21]: -0.027 | glycan array binding signal (z-score) [22]: -0.123 | glycan array binding signal (z-score) [23]: 0.16 | glycan array binding signal (z-score) [24]: 0.403 | glycan array binding signal (z-score) [25]: 0.207 | glycan array binding signal (z-score) [26]: 0.148 | glycan array binding signal (z-score) [27]: -0.209 | glycan array binding signal (z-score) [28]: -0.137 | glycan array binding signal (z-score) [29]: -0.158 | glycan array binding signal (z-score) [30]: -0.175 | glycan array binding signal (z-score) [31]: -0.207 | glycan array binding signal (z-score) [32]: -0.238 | glycan array binding signal (z-score) [33]: -0.246 | glycan array binding signal (z-score) [34]: -0.178 | glycan array binding signal (z-score) [35]: 1.26 | glycan array binding signal (z-score) [36]: -0.248 | glycan array binding signal (z-score) [37]: -0.208
